In PubChem BioAssay AID1347070 (National Center for Advancing Translational Sciences (NCATS), 2019):
Among all 94,000 compounds or so, about 20 (0.02%) were called active. The shares of active, inactive and inconclusive entries below differ from those in the screen. Calls come from the whole dose curve; as a rule, active = well fitted activation curve with a large enough effect; inconclusive = small, poorly fitted or top-dose-only effect; inactive = flat fitted curve, though single readings scatter. Potencies of inconclusive entries are left out as doubtful fits.

assay: qHTS of alpha-syn Inhibitors: NCGC Sytravon Library Screen; for growth rescue (activation): 0% is about no effect; conditions: S. cerevisiae alpha-synuclein toxicity rescue, BacTiter-Glo growth, 24 h; growth rescue (activation): at 46.1 µM (top of the series)
Procedure, shortened: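 Growth restoration measured by BacTiter-Glo luminescence after 24 hr at 30 deg C; alpha-synuclein yeast, raffinose-pregrown to mid-log, were added at OD600=0.02 in galactose medium onto pinned compounds.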
Potency is the fitted concentration of half-maximal effect; tags give direction and shape of the fitted curve.

Row | Structure (SMILES) | Potency | growth rescue (activation)
1 | Cc1ccc2occ(CC(=O)N(Cc3ccc(C(C)C)cc3)C3CCS(=O)(=O)C3)c2c1 (centres undefined) | inconclusive [activator, single point] | –
2 | COc1ccc2nc(C)cc(Nc3ccc(Cl)c(Cl)c3)c2c1 | – | inactive: 7.38%
3 | Cc1ccc(NC(=O)NNC(=O)c2ccc3c(c2)NC(=O)C(C)(C)O3)cc1 | – | inactive: 6.26%
4 | CCn1c(C)c(C)c2cc(C(=O)NCc3ccc(F)cc3)ccc21 | inconclusive [activator, single point] | –
5 | CCOC(=O)c1ccc2c(c1)N(Cc1ccc(F)cc1Cl)C(=O)c1ccccc1S2(=O)=O | – | inactive: -6.47%
6 | CCCCN(CC)CCNC(=O)c1cn(C)c(=O)c2c1c1ccccc1n2C | inconclusive [activator, single point] | –
7 | CCCn1c(CCC(=O)Nc2ccc(OCC)cc2)nc2cccnc21 | inconclusive [activator, single point] | –
8 | COc1cccc(N2CCN(C(=O)C3CCN(S(=O)(=O)c4c(C)noc4C)CC3)CC2)c1 | – | inactive: -3.33%
9 | COc1ccc(OC)c(NS(=O)(=O)c2ccc3[nH]c4c(c3c2)CCCCC4)c1 | inconclusive [activator, single point] | –
10 | CS(=O)(=O)Cc1ccc(C(=O)Nc2cccc(-c3nc4ccccc4[nH]3)c2)cc1 | – | inactive: -29.8%
11 | COc1ccc(Cl)cc1NC(=O)CSc1nc(-c2ccco2)cc(C(F)(F)F)n1 | inconclusive [activator, single point] | –
12 | CC(C)(C)C1CCc2c(sc(NC(=O)CCC(=O)O)c2C(=O)Nc2ccccc2C(F)(F)F)C1 (centres undefined) | – | inactive: -18.5%
13 | CCOC(=O)c1sc2ccccc2c1S(=O)(=O)NCc1ccc(F)cc1 | inconclusive [activator, partial curve] | –
14 | CC1CCN(C(=O)CCn2c(=O)oc3ccc(Cl)cc32)CC1 | – | inactive: -1.14%
15 | Cc1cccc(C(=O)OCC(=O)NC(=O)NC2CCCCC2)c1 | – | inconclusive: 30.9% [activator]
16 | CC(C)Sc1ncc(Cl)c(C(=O)N(Cc2ccc(F)cc2)C2CCS(=O)(=O)C2)n1 (centres undefined) | inconclusive [activator, single point] | –
17 | CCN(C(=O)c1cc(S(=O)(=O)N2CCc3ccccc32)cn1C)c1cccc(C)c1 | – | inactive: 0.759%
18 | CCc1cccc(C)c1Nc1c(-c2ccc(N(C)C)cc2)nc2cnccn12 | inconclusive [activator, single point] | –
19 | COc1ccc(CCN2C(=O)CN(C3CCCCCC3)C(=O)C2c2ccc(Cl)cc2)cc1OC (centres undefined) | inconclusive [activator, single point] | –
20 | O=C(Cn1cc2c(n1)CCCCC2)Nc1ccccc1Br | – | inconclusive: 32.7% [activator]
21 | COc1ccc(Nc2c3c(nc4ccc(NC(=O)c5cc(Cl)ccc5OC)cc24)CCCC3)cc1OC | – | inactive: -17%
22 | CC12CN3CC(c4ccccc4)(CN(C1)C3c1ccc(Cl)cc1)C2=O (centres undefined) | – | inactive: 17.5%

Row | Structure (SMILES) | Potency | growth rescue (activation)
23 | CC(C)(C)c1ccc(C(=O)NNC(=S)NC(=O)c2cccnc2)cc1 | – | inconclusive: 190% [activator]
24 | COC(=O)c1scc(-c2ccccc2)c1S(=O)(=O)Nc1ccc(C)c(Cl)c1 | – | inconclusive: 30.7% [activator]
25 | COc1ccc(NS(=O)(=O)c2c(C)nc3scc(C)n3c2=O)cc1 | inconclusive [activator, single point] | –
26 | Cc1cccc(-n2c(=O)c3ccccc3n(Cc3ccccc3)c2=O)c1 | inconclusive [activator, single point] | –
27 | Cc1ccc(NC(=O)c2cc(S(=O)(=O)NC3CCCCC3)ccc2F)cc1Cl | inconclusive [activator, single point] | –
28 | CCOC(=O)c1cc(-c2ccc(F)cc2)n(CCC(=O)Nc2nc3ccc(OC)cc3s2)c1C | – | inactive: 16.6%
29 | CCN(CC)CCCNC(=O)c1nn(C)c2c1CSc1ccccc1-2 | – | inactive: 0.244%
30 | CCOc1ccc(-c2n[nH]c(C)c2-c2ccccn2)c(O)c1 | – | inactive: -4.58%
31 | Cc1ccc(NCc2nc3ccccc3n2CCOc2ccccc2)cc1 | inconclusive [activator, single point] | –
32 | O=C(Cc1ccccc1)N(Cc1cccnc1)c1nc2c(Cl)cccc2s1 | active: 14.1 µM | –
33 | COc1ccc(-c2cc3nc(C)c(CCC(=O)NCc4ccccc4Cl)c(C)n3n2)c(OC)c1 | inconclusive [activator, single point] | –
34 | O=C(N/N=C/c1c(O)ccc2ccccc12)C(=O)N1CCCC1 | – | inconclusive: 147% [activator]
35 | COc1ccc(NC(=O)c2c(NCc3cccs3)sc3c2CCCC3)c(OC)c1 | inconclusive [activator, single point] | –
36 | Cc1ccc(-c2ccc(=O)n(CC(=O)NCCc3ccc(Cl)cc3)n2)cc1 | inconclusive [activator, single point] | –
37 | CCc1ccc(N(CC)C(=O)CCn2cnc3onc(-c4ccc(F)cc4)c3c2=O)cc1 | inconclusive [activator, single point] | –
38 | CC(C)Oc1ccc(C(=O)N(Cc2ccc(N(C)C)cc2)Cc2ccco2)cc1 | – | inactive: -21.8%
39 | COc1ccc(C(=O)NC(c2ccccc2Cl)c2cc(Cl)c3cccnc3c2O)cc1 (centres undefined) | inconclusive [activator, single point] | –
40 | Cc1noc(-c2ccccc2OCC(=O)Nc2ccccc2[N+](=O)[O-])n1 | inconclusive [activator, single point] | –
41 | COc1ccccc1S(=O)(=O)Cc1ccc(C(=O)N2CCN(c3cc(Cl)ccc3C)CC2)o1 | inconclusive [activator, single point] | –
42 | COc1cccc(-n2c(SCC(=O)Nc3ccc4c(c3)OCO4)nc3c([nH]c4ccccc43)c2=O)c1 | inconclusive [activator, single point] | –
43 | O=C(Cn1cc(SCc2ccc(Cl)cc2)c2ccccc21)N1CCOCC1 | inconclusive [activator, single point] | –
44 | CC1=C(C(=O)Nc2cccc(F)c2)C2(CCCCC2)OC1=O | inconclusive [activator, single point] | –
